Assay results from patent US20230192795A1 (Hoffmann-La Roche, published 2023).

Experiments:
[1] = target: T1, Human IL7Ra-IL2Rγ-Fc heterodimer (human, biotin on the avi tag); test: SPR, captured from supernatant, 800 nM receptor-Fc single injection
T1 construct: Extracellular domains of IL-7Ralpha and IL-2Rgamma fused to Fc knob and Fc hole; also called hu IL7Ra-IL2Rγ-Fc avi biotin; human IL7Ra-IL2Rg-Fc biotin
Protocol: Surface Plasmon Resonacne (SPR) experiments were performed on a Biacore T200 with HBS-EP+ as running buffer (0.01 M HEPES pH 7.4, 0.15 M NaCl, 0.005% Surfactant P20 (BR-1006-69, GE Healthcare)). Fc specific antibodies (Roche internal) were directly immobilized by amine coupling on a CM5 chip (GE Healthcare). The PDI-IL7 constructs were captured from supernatants for 120 s at 100 nM. […] Only the extracellular domains were fused to Fc domains, produced in HEK Expi Cells and purified by two-step column chromatography including affinity purification via Protein A followed by size-exclusion chromatography. A single injection of 800 nM hu IL 7Ra-IL2Rγ-Fc heterodimer was passed over the ligand at 30 µ1/min for 240 sec to record the association phase. The dissociation phase was monitored for 360 s and triggered by switching from the sample solution to HBS-EP+. The chip surface was regenerated after every cycle using one injection of 10 mM glycine pH 2 for 60 sec. Bulk refractive index differences were corrected for by subtracting the response obtained on the reference flow cell 1. The response units after the capture step and at the end of the association phase were recorded and a ratio of binding to capture was calculated. The single binding curves were fitted in the dissociation phase to obtain a koff for ease of comparison (Biacore Evaluation software, GE Healthcare).
The ratio of binding to capture was calculated and the dissociation phase was fitted to a single curve to support the characterization of the off-rate.

[2] = target: T2, IL-7Rα/IL-2Rγ on human T cells (human, UniProt P16871 21-459; P31785 23-369); test: cell-based or functional assay
T2 sequence (looked up) 1: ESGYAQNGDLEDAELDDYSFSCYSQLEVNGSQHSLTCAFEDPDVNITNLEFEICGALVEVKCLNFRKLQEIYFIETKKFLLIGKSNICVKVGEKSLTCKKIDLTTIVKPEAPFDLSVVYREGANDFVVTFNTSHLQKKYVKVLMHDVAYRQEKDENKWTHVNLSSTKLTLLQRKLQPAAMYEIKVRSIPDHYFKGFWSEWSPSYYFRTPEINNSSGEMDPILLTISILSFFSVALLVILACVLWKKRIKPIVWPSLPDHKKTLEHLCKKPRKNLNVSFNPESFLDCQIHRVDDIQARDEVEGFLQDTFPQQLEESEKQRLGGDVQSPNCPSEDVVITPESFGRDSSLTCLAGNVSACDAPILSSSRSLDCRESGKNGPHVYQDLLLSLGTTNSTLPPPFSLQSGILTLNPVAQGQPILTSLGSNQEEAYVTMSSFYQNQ
T2 sequence (looked up) 2: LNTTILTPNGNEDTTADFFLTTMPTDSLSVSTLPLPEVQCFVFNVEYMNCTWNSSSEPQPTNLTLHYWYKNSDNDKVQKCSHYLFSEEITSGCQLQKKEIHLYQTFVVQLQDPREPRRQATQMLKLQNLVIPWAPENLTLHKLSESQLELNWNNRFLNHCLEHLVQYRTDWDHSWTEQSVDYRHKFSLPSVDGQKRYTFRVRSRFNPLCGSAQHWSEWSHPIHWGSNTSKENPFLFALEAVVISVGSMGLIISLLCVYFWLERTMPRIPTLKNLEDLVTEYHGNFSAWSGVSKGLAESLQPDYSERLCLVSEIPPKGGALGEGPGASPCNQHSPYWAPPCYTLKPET

[3] = target: human PD-1 on T cells (human, UniProt Q15116 25-288); test: cell-based or functional assay
Chain of UniProt Q15116 (Q15116 25-288 limits assumed): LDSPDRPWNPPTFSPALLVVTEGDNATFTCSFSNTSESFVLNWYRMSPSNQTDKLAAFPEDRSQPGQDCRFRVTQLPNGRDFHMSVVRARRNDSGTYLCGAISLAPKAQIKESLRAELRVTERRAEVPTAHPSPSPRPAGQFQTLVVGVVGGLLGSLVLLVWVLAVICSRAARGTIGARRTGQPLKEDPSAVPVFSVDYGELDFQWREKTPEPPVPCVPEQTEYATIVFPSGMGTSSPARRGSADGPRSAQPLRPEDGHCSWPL

B1: PD1-IL7-VAR1 (E13A) (other)
light: DIVMTQSPDSLAVSLGERATINCKASESVDTSDNSFIHWYQQKPGQSPKLLIYRSSTLESGVPDRFSGSGSGTDFTLTISSLQAEDVAVYYCQQNYDVPWTFGQGTKVEIKRTVAAPSVFIFPPSDEQLKSGTASVVCLLNNFYPREAKVQWKVDNALQSGNSQESVTEQDSKDSTYSLSSTLTLSKADYEKHKVYACEVTHQGLSSPVTKSFNRGEC
heavy 1: EVQLLESGGGLVQPGGSLRLSCAASGFSFSSYTMSWVRQAPGKGLEWVATISGGGRDIYYPDSVKGRFTISRDNSKNTLYLQMNSLRAEDTAVYYCVLLTGRVYFALDSWGQGTLVTVSSASTKGPSVFPLAPSSKSTSGGTAALGCLVKDYFPEPVTVSWNSGALTSGVHTFPAVLQSSGLYSLSSVVTVPSSSLGTQTYICNVNHKPSNTKVDKKVEPKSCDKTHTCPPCPAPEAAGGPSVFLFPPKPKDTLMISRTPEVTCVVVDVSHEDPEVKFNWYVDGVEVHNAKTKPREEQYNSTYRVVSVLTVLHQDWLNGKEYKCKVSNKALGAPIEKTISKAKGQPREPQVCTLPPSRDELTKNQVSLSCAVKGFYPSDIAVEWESNGQPENNYKTTPPVLDSDGSFFLVSKLTVDKSRWQQGNVFSCSVMHEALHNHYTQKSLSLSPGK
heavy 2: EVQLLESGGGLVQPGGSLRLSCAASGFSFSSYTMSWVRQAPGKGLEWVATISGGGRDIYYPDSVKGRFTISRDNSKNTLYLQMNSLRAEDTAVYYCVLLTGRVYFALDSWGQGTLVTVSSASTKGPSVFPLAPSSKSTSGGTAALGCLVKDYFPEPVTVSWNSGALTSGVHTFPAVLQSSGLYSLSSVVTVPSSSLGTQTYICNVNHKPSNTKVDKKV[human IgG1 Fc with changes left out]GGGGSGGGGSGGGGSDCDIEGKDGKQYASVLMVSIDQLLDSMKEIGSNCLNNEFNFFKRHICDANKEGMFLFRAARKLRQFLKMNSTGDFDLHLLKVSEGTTILLNCTGQVKGRKPAALGEAQPTKSLEENKSLKEQKKLNDLCFLKRLLQEIKTCWNKILMGTKEH
notes: Format as m1
Work on B1 yielded a koff [1] of 0.000555 s⁻¹.

B2: PD1-IL7-VAR2 (E13K) (other)
light: B1 light
heavy 1: B1 heavy 1
heavy 2: EVQLLESGGGLVQPGGSLRLSCAASGFSFSSYTMSWVRQAPGKGLEWVATISGGGRDIYYPDSVKGRFTISRDNSKNTLYLQMNSLRAEDTAVYYCVLLTGRVYFALDSWGQGTLVTVSSASTKGPSVFPLAPSSKSTSGGTAALGCLVKDYFPEPVTVSWNSGALTSGVHTFPAVLQSSGLYSLSSVVTVPSSSLGTQTYICNVNHKPSNTKVDKKV[human IgG1 Fc with changes left out]GGGGSGGGGSGGGGSDCDIEGKDGKQYKSVLMVSIDQLLDSMKEIGSNCLNNEFNFFKRHICDANKEGMFLFRAARKLRQFLKMNSTGDFDLHLLKVSEGTTILLNCTGQVKGRKPAALGEAQPTKSLEENKSLKEQKKLNDLCFLKRLLQEIKTCWNKILMGTKEH
notes: Format as m1; IL-7 with E13K
In the case of B2, the koff [1] is reported as 0.000864 s⁻¹.

B3: PD1-IL7-VAR3 (V15A) (other)
light: B1 light
heavy 1: B1 heavy 1
heavy 2: EVQLLESGGGLVQPGGSLRLSCAASGFSFSSYTMSWVRQAPGKGLEWVATISGGGRDIYYPDSVKGRFTISRDNSKNTLYLQMNSLRAEDTAVYYCVLLTGRVYFALDSWGQGTLVTVSSASTKGPSVFPLAPSSKSTSGGTAALGCLVKDYFPEPVTVSWNSGALTSGVHTFPAVLQSSGLYSLSSVVTVPSSSLGTQTYICNVNHKPSNTKVDKKV[human IgG1 Fc with changes left out]GGGGSGGGGSGGGGSDCDIEGKDGKQYESALMVSIDQLLDSMKEIGSNCLNNEFNFFKRHICDANKEGMFLFRAARKLRQFLKMNSTGDFDLHLLKVSEGTTILLNCTGQVKGRKPAALGEAQPTKSLEENKSLKEQKKLNDLCFLKRLLQEIKTCWNKILMGTKEH
notes: Format as m1; IL-7 with V15A; also called PD1-IL7 -V15A (Var3); PD1-IL7-VAR3 (VISA)
B3 was tested, and the koff [1] was 0.00183 s⁻¹, the “fold increase in EC50, EC50 [PD1+]/EC50 PD1-IL7wt [PD1+]” value [2] was 1.7 fold and the “fold increase in EC50, EC50 [with PD1bl]/EC50 [PD1+]” value [3] was 10.5 fold.

B4: PD1-IL7-VAR5 (V18A) (other)
light: B1 light
heavy 1: B1 heavy 1
heavy 2: EVQLLESGGGLVQPGGSLRLSCAASGFSFSSYTMSWVRQAPGKGLEWVATISGGGRDIYYPDSVKGRFTISRDNSKNTLYLQMNSLRAEDTAVYYCVLLTGRVYFALDSWGQGTLVTVSSASTKGPSVFPLAPSSKSTSGGTAALGCLVKDYFPEPVTVSWNSGALTSGVHTFPAVLQSSGLYSLSSVVTVPSSSLGTQTYICNVNHKPSNTKVDKKV[human IgG1 Fc with changes left out]GGGGSGGGGSGGGGSDCDIEGKDGKQYESVLMASIDQLLDSMKEIGSNCLNNEFNFFKRHICDANKEGMFLFRAARKLRQFLKMNSTGDFDLHLLKVSEGTTILLNCTGQVKGRKPAALGEAQPTKSLEENKSLKEQKKLNDLCFLKRLLQEIKTCWNKILMGTKEH
notes: Format as m1; IL-7 with V18A; also called PD1-IL7 -V18A (Var5)
With B4 the koff [1] was 0.00113 s⁻¹, the “fold increase in EC50, EC50 [PD1+]/EC50 PD1-IL7wt [PD1+]” value [2] was 1.1 fold and the “fold increase in EC50, EC50 [with PD1bl]/EC50 [PD1+]” value [3] was 5.5 fold.

B5: PD1-IL7-VAR6 (V18K) (other)
light: B1 light
heavy 1: B1 heavy 1
heavy 2: EVQLLESGGGLVQPGGSLRLSCAASGFSFSSYTMSWVRQAPGKGLEWVATISGGGRDIYYPDSVKGRFTISRDNSKNTLYLQMNSLRAEDTAVYYCVLLTGRVYFALDSWGQGTLVTVSSASTKGPSVFPLAPSSKSTSGGTAALGCLVKDYFPEPVTVSWNSGALTSGVHTFPAVLQSSGLYSLSSVVTVPSSSLGTQTYICNVNHKPSNTKVDKKV[human IgG1 Fc with changes left out]GGGGSGGGGSGGGGSDCDIEGKDGKQYESVLMKSIDQLLDSMKEIGSNCLNNEFNFFKRHICDANKEGMFLFRAARKLRQFLKMNSTGDFDLHLLKVSEGTTILLNCTGQVKGRKPAALGEAQPTKSLEENKSLKEQKKLNDLCFLKRLLQEIKTCWNKILMGTKEH
notes: Format as m1; IL-7 with V18K; also called PD1-IL7 -V18K (Var6)
For B5, the koff [1] was 0.00115 s⁻¹, the “fold increase in EC50, EC50 [PD1+]/EC50 PD1-IL7wt [PD1+]” value [2] was 1.9 fold and the “fold increase in EC50, EC50 [with PD1bl]/EC50 [PD1+]” value [3] was 8.3 fold.
